Laboratory results as given in PubChem BioAssay AID504584 (Vanderbilt High Throughput Screening Facility, 2011).
The list shows a part of the results. Further columns of the screen follow, without active or inactive calls.

Assay: T-type Cav3 channel lead: off-target radioligand binding panel, single 10 uM point (AID 504584)
Settings: Ricerca radioligand binding panel, % inhibition, at 10 µM

Compound: CC(C)(C)CCN1C[C@@H]2C(CNC(=O)c3cc(Cl)cc(Cl)c3)[C@@H]2C1 (some centres not stated)
- inhibition (measured here: Adrenergic alpha1B binding): 71%
- inhibition (measured here: Dopamine D2 binding): 78%
- inhibition (measured here: Dopamine D3 binding): 77%
- inhibition (measured here: L-type Ca benzothiazepine site): 69%
- inhibition (measured here: L-type Ca dihydropyridine site): 49%
- inhibition (measured here: Muscarinic M2 binding): 51%
- inhibition (measured here: Norepinephrine transporter binding): 73%
- inhibition (measured here: Opiate kappa binding): 62%
- inhibition (measured here: Serotonin 5-HT1A binding): 46%
- inhibition (measured here: Serotonin 5-HT2B binding): 63%
- inhibition (measured here: Sodium channel site 2 binding): 102%
- inhibition (measured here: hERG potassium channel binding): 52%
